# Assay results as given in the supplement of paper PMC8728848.
# This is one part of the list.
# Columns and labels:
# Experiment in all cases: glycan array binding signal (z-score within array); higher = stronger binding
# Settings in all cases: glycan notation: IUPAC condensed, linker removed
# [1] = biological target: GalNAc(b1-4)GlcNAc
# Procedure, shortened: (§1)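 Columns mapping to the same glycan were averaged after glycan names were converted to IUPAC-condensed notation. The data come from 3228 arrays in the Consortium for Functional Glycomics database, limited to those with an available protein sequence. Binding is reported as a within-array Z-score averaged across arrays of one protein sequence and across linkers.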
# [2] = biological target: GalNAc(b1-4)GlcNAc(b1-2)Man
# Procedure, shortened: as §1
# [3] = biological target: GalNAc(b1-4)GlcNAc(b1-2)Man(a1-3)[GalNAc(b1-4)GlcNAc(b1-2)Man(a1-6)]Man(b1-4)GlcNAc(b1-4)GlcNAc
# Procedure, shortened: as §1
# [4] = biological target: GalNAc(b1-4)GlcNAc(b1-3)GalNAc(b1-4)GlcNAc
# Procedure, shortened: as §1
# [5] = biological target: GalNAc(b1-4)GlcNAc6S
# Procedure, shortened: as §1
# [6] = biological target: GalNAc(b1-6)GalNAc
# Procedure, shortened: as §1
# [7] = biological target: GalNAc3S(b1-4)GlcNAc
# Procedure, shortened: as §1
# [8] = biological target: GalNAc3S(b1-4)GlcNAc3S
# Procedure, shortened: as §1
# [9] = biological target: GalNAc3S(b1-4)[Fuc(a1-3)]GlcNAc
# Procedure, shortened: as §1
# [10] = biological target: GalNAc4S6S(b1-4)GlcNAc
# Procedure, shortened: as §1
# [11] = biological target: GalNAc6S(b1-4)GlcNAc
# Procedure, shortened: as §1
# [12] = biological target: Glc(a1-4)Glc
# Procedure, shortened: as §1
# [13] = biological target: Glc(a1-4)Glc(a1-4)Glc(a1-4)Glc
# Procedure, shortened: as §1
# [14] = biological target: Glc(a1-6)Glc(a1-6)Glc
# Procedure, shortened: as §1
# [15] = biological target: Glc(a1-6)Glc(a1-6)Glc(a1-6)Glc
# Procedure, shortened: as §1
# [16] = biological target: Glc(b1-4)Glc
# Procedure, shortened: as §1
# [17] = biological target: Glc(b1-6)Glc
# Procedure, shortened: as §1
# [18] = biological target: GlcA(b1-3)Gal
# Procedure, shortened: as §1
# [19] = biological target: GlcA(b1-3)GlcNAc
# Procedure, shortened: as §1
# [20] = biological target: GlcA(b1-6)Gal
# Procedure, shortened: as §1
# [21] = biological target: GlcA3S(b1-3)Gal(b1-4)GlcNAc(b1-2)Man
# Procedure, shortened: as §1
# [22] = biological target: GlcA3S(b1-3)Gal(b1-4)GlcNAc(b1-3)Gal(b1-4)Glc
# Procedure, shortened: as §1
# [23] = biological target: GlcNAc(a1-3)Gal(b1-4)GlcNAc
# Procedure, shortened: as §1
# [24] = biological target: GlcNAc(a1-4)Gal(b1-3)GlcNAc
# Procedure, shortened: as §1
# [25] = biological target: GlcNAc(a1-4)Gal(b1-4)GalNAc
# Procedure, shortened: as §1
# [26] = biological target: GlcNAc(a1-4)Gal(b1-4)GlcNAc
# Procedure, shortened: as §1
# [27] = biological target: GlcNAc(a1-4)Gal(b1-4)GlcNAc(b1-3)Gal(b1-4)Glc
# Procedure, shortened: as §1
# [28] = biological target: GlcNAc(a1-4)Gal(b1-4)GlcNAc(b1-3)Gal(b1-4)GlcNAc
# Procedure, shortened: as §1
# [29] = biological target: GlcNAc(a1-4)Gal(b1-4)GlcNAc(b1-3)Gal(b1-4)GlcNAc(b1-3)Gal(b1-4)GlcNAc
# Procedure, shortened: as §1
# [30] = biological target: GlcNAc(a1-4)Gal(b1-4)GlcNAc(b1-3)Gal(b1-4)[Fuc(a1-3)]GlcNAc(b1-3)Gal(b1-4)[Fuc(a1-3)]GlcNAc
# Procedure, shortened: as §1
binder,measurement,setting,value
"a L Fucosidase (Streptosporangium roseum), D2B1P1_STRRD (protein) MRRKLLLVPAVGLLVIGSIFATQPVASADTPPVYEPTVESLNSHPVPQWFNDDKFGIFIHWGAYSVPAWGPRGSYAEWYGNYMNAGGSATNAHHKATYGQDFNYDAFLQQWKAEKFDPADWVKLFKDAGAKYFVLTSKHHEGMALWDSKSSGRDSVDLGPGRDLAKELFDAARKDEAKLKAGFYYSLYEWYNPAYTGRPATNPYTGAEIPYTGAPGGGDYVKDYMLPQMRELIDGYDPDIIWCDGQWEKPASYWNTAGVIADYYNKALNSGKEVAVANRCKIQSGNLDSPELDFQTPEYTVKPDIDPVKWESSRGIAHSYGYNQNEPEEDHLTSDQLVDSLVDIVSKNGNLLLDIGPKADGTIPEIQRQRLLDIGAWLKANGEAIYGTTYWNRAEEKGGPDDVRYTAKDATLYATALKWPGEQLTLGADLPVDHSTRITMLGSGARLSWSRDEQGRVVVNTPQEAGKHAYVFKIETPGVRSLLRTSSSLAKEIAPGRTISGELTVTNPGKRHTPATKLSLTVPQGWTATLGAPRVRPLGPGESVKVPISVSAPEGVAPAPYTLGLYQRTGRMGTTTALPLTVNRPNLSLGKPATQKSTGYDAPASRAVDGNTGGDWSAGSTTHTAEPEKQAWWQVDLGASARLDSVDVWNRLDCCADRLKDFWVMASDQPFTTDDLDQARTAPGVTAVHVGEQAGSPSKVKLPEGTRGRYVRIQLASPSNPLSLAEVQVRGSMARPNLSLGKPATQKSTGYDAPASRAVDGNTGGDWSAGSTTHTAEPEKQAWWQVDLGASARLDSVDVWNRLDCCADRLKDFWVMASDQPFTTDDLDQARTAPGVTAVHVGEQAGSPSKVKLPEGTRGRYVRIQLASPSNPLSLAEVQVRLEHHHHHHS",glycan array binding signal (z-score),[1],-0.528
same,glycan array binding signal (z-score),[2],-0.597
same,glycan array binding signal (z-score),[3],-0.34
same,glycan array binding signal (z-score),[4],-0.14
same,glycan array binding signal (z-score),[5],-0.397
same,glycan array binding signal (z-score),[6],-0.589
same,glycan array binding signal (z-score),[7],-0.625
same,glycan array binding signal (z-score),[8],-0.585
same,glycan array binding signal (z-score),[9],-0.535
same,glycan array binding signal (z-score),[10],0.129
same,glycan array binding signal (z-score),[11],-0.617
same,glycan array binding signal (z-score),[12],-0.488
same,glycan array binding signal (z-score),[13],-0.468
same,glycan array binding signal (z-score),[14],-0.263
same,glycan array binding signal (z-score),[15],-0.415
same,glycan array binding signal (z-score),[16],-0.301
same,glycan array binding signal (z-score),[17],0.05
same,glycan array binding signal (z-score),[18],-0.445
same,glycan array binding signal (z-score),[19],-0.107
same,glycan array binding signal (z-score),[20],-0.444
same,glycan array binding signal (z-score),[21],-0.417
same,glycan array binding signal (z-score),[22],-0.319
same,glycan array binding signal (z-score),[23],-0.487
same,glycan array binding signal (z-score),[24],-0.526
same,glycan array binding signal (z-score),[25],-0.409
same,glycan array binding signal (z-score),[26],-0.493
same,glycan array binding signal (z-score),[27],-0.451
same,glycan array binding signal (z-score),[28],-0.405
same,glycan array binding signal (z-score),[29],-0.462
same,glycan array binding signal (z-score),[30],-0.182
